# Measurements taken from the supplement of paper PMC12217912.
# The list shows a part of the results. Sequences were assembled here from the parent chain. Values near 0.05 are background.
# B1: TEV protease; numbered along this chain (parent)
# chain: MGESLFKGPRDYNPISSSICHLTNESDGHTTSLYGIGFGPFIITNKHLFRRNNGTLVVQSLHGVFKVKDTTTLQQHLVDGRDMIIIRMPKDFPPFPQKLKFREPQREERICLVTTNFQTKSMSSMVSDTSCTFPSGDGIFWKHWIQTKDGQCGSPLVSTRDGFIVGIHSASNFTNTNNYFTSVPKNFMELLTNQEAQQWVSGWRLNADSVLWGGHKVFMVKPEEPFQPVKEATQL
# Variants of: B1
# Assay: raw area under fraction-flipped curve 0-4 h after induction (AUC4h, not background-subtracted), DNA-recorder readout of cleavage of the substrate (dimensionless); higher = more cleavage of the substrate by the protease variant
# Details: temperature: 34 °C; time window: 0-4 h after rhamnose induction
# Experimental: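 In vivo DNA recorder in E. coli TOP10(DE3) ΔrhaA at 34 °C. Each TEVp single-site mutant (parent TEVp 0) is paired with a single-site variant of the 7-mer TEVs (canonical ENLYFQ|S). The substrate sits between flexible linkers in a Bxb1-sfGFP-TEVs-SsrA fusion, so cleavage stabilises Bxb1 and speeds flipping of a recombination array, read by NGS. The value is the raw area under the fraction-flipped curve over 0-4 h after rhamnose induction (AUC4h), with ≥20 reads per time point. It is not background-subtracted; inactive controls average about 0.047.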
# 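Note: Bxb1 expression induced with 0.2% (w/v) L-rhamnose at OD600 near 0.5, cultures sampled hourly, flipped fraction per protease–substrate barcode pair counted by paired-end Illumina sequencing.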
Variant,area with substrate CNLYFQS,area with substrate DNLYFQS,area with substrate FNLYFQS,area with substrate GNLYFQS,area with substrate HNLYFQS,area with substrate KNLYFQS,area with substrate MNLYFQS,area with substrate PNLYFQS,area with substrate RNLYFQS,area with substrate SNLYFQS,area with substrate WNLYFQS,area with substrate LNLYFQS,area with substrate TNLYFQS,area with substrate VNLYFQS,area with substrate YNLYFQS,area with substrate INLYFQS,area with substrate QNLYFQS,area with substrate NNLYFQS
MGESLFKGPRDYNPISSSICHLTNESDGHTTSLYGIGFGPFIITNKHLFRRNNGTLVVQSLHGVFKVKDTTTLQQHLVDGRDMIIIRMPKDFPPFPQKLKFREPQREERICLVTTNFQTKSMSSMVSDTSCTCPSGDGIFWKHWIQTKDGQCGSPLVSTRDGFIVGIHSASNFTNTNNYFTSVPKNFMELLTNQEAQQWVSGWRLNADSVLWGGHKVFMVKPEEPFQPVKEATQL [F133C],0.0878,0.0822,0.0779,0.0778,0.0647,0.0559,0.0687,0.0837,0.0657,0.0574,0.0559,,,,,,,
MGESLFKGPRDYNPISSSICHLTNESDGHTTSLYGIGFGPFIITNKHLFRRNNGTLVVQSLHGVFKVKDTTTLQQHLVDGRDMIIIRMPKDFPPFPQKLKFREPQREERICLVTTNFQTKSMSSMVSDTSCTVPSGDGIFWKHWIQTKDGQCGSPLVSTRDGFIVGIHSASNFTNTNNYFTSVPKNFMELLTNQEAQQWVSGWRLNADSVLWGGHKVFMVKPEEPFQPVKEATQL [F133V],0.047,0.0893,0.0674,0.0499,0.0819,,,0.0683,0.0681,0.0781,0.0668,0.0621,0.0614,0.0601,0.0748,,,
MGESLFKGPRDYNPISSSICHLTNESDGHTTSLYGIGFGPFIITNKHLFRRNNGTLVVQSLHGVFKVKDTTTLQQHLVDGRDMIIIRMPKDFPPFPQKLKFREPQREERICLVTTNFQTKSMSSMVSDTSCTFPPGDGIFWKHWIQTKDGQCGSPLVSTRDGFIVGIHSASNFTNTNNYFTSVPKNFMELLTNQEAQQWVSGWRLNADSVLWGGHKVFMVKPEEPFQPVKEATQL [S135P],0.0754,0.0907,,0.061,0.0679,0.0474,0.0641,0.0595,,,0.06,,,0.0455,,,,
MGESLFKGPRDYNPISSSICHLTNESDGHTTSLYGIGFGPFIITNKHLFRRNNGTLVVQSLHGVFKVKDTTTLQQHLVDGRDMIIIRMPKDFPPFPQKLKFREPQREERICLVTTNFQTKSMSSMVSDTSCTFPVGDGIFWKHWIQTKDGQCGSPLVSTRDGFIVGIHSASNFTNTNNYFTSVPKNFMELLTNQEAQQWVSGWRLNADSVLWGGHKVFMVKPEEPFQPVKEATQL [S135V],0.057,0.0666,,0.0624,0.0597,0.0646,,0.0608,,0.0713,0.0592,0.0606,0.0693,,0.062,0.0663,0.0659,
MGESLFKGPRDYNPISSSICHLTNESDGHTTSLYGIGFGPFIITNKHLFRRNNGTLVVQSLHGVFKVKDTTTLQQHLVDGRDMIIIRMPKDFPPFPQKLKFREPQREERICLVTTNFQTKSMSSMVSDTSCTFPGGDGIFWKHWIQTKDGQCGSPLVSTRDGFIVGIHSASNFTNTNNYFTSVPKNFMELLTNQEAQQWVSGWRLNADSVLWGGHKVFMVKPEEPFQPVKEATQL [S135G],0.0623,0.0476,0.0587,0.0598,,0.06,0.0607,0.0655,0.0561,,0.0594,0.0264,0.0512,,0.0519,,,0.0533
MGESLFKGPRDYNPISSSICHLTNESDGHTTSLYGIGFGPFIITNKHLFRRNNGTLVVQSLHGVFKVKDTTTLQQHLVDGRDMIIIRMPKDFPPFPQKLKFREPQREERICLVTTNFQTKSMSSMESDTSCTFPSGDGIFWKHWIQTKDGQCGSPLVSTRDGFIVGIHSASNFTNTNNYFTSVPKNFMELLTNQEAQQWVSGWRLNADSVLWGGHKVFMVKPEEPFQPVKEATQL [V126E],0.0545,0.0913,0.0738,0.0734,0.0816,0.047,0.0695,0.0125,0.0581,,0.0688,,,0.0819,0.0668,,0.0773,
MGESLFKGPRDYNPISSSICHLTNESDGHTTSLYGIGFGPFIITNKHLFRRNNGTLVVQSLHGVFKVKDTTTLQQHLVDGRDMIIIRMPKDFPPFPQKLKFREPQREERICLVTTNFQTKSMSSMVSVTSCTFPSGDGIFWKHWIQTKDGQCGSPLVSTRDGFIVGIHSASNFTNTNNYFTSVPKNFMELLTNQEAQQWVSGWRLNADSVLWGGHKVFMVKPEEPFQPVKEATQL [D128V],0.121,0.105,0.0667,,0.0756,,0.0516,0.0751,0.0547,,0.0657,0.0712,0.165,,,0.0893,,0.0831
MGESLFKGPRDYNPISSSICHLTNESDGHTTSLYGIGFGPFIITNKHLFRRNNGTLVVQSLHGVFKVKDTTTLQQHLVDGRDMIIIRMPKDFPPFPQKLKFREPQREERICLVTTNFQTKSMSSMVSDTWCTFPSGDGIFWKHWIQTKDGQCGSPLVSTRDGFIVGIHSASNFTNTNNYFTSVPKNFMELLTNQEAQQWVSGWRLNADSVLWGGHKVFMVKPEEPFQPVKEATQL [S130W],0.0137,0.0694,0.0588,0.0572,0.0623,0.0651,0.0618,,,0.0591,0.0617,,0.0738,0.0591,0.0453,,,0.062
MGESLFKGPRDYNPISSSICHLTNESDGHTTSLYGIGFGPFIITNKHLFRRNNGTLVVQSLHGVFKVKDTTTLQQHLVDGRDMIIIRMPKDFPPFPQKLKFREPQREERICLVTTNFQTKSMSSMVSDTDCTFPSGDGIFWKHWIQTKDGQCGSPLVSTRDGFIVGIHSASNFTNTNNYFTSVPKNFMELLTNQEAQQWVSGWRLNADSVLWGGHKVFMVKPEEPFQPVKEATQL [S130D],0.059,0.0568,,,0.0562,0.108,0.0504,0.0681,,0.0458,0.0599,,0.0428,,0.0576,,,
